Assay results as given in the RNAGym collection of RNA variant scans (doi:10.1073/pnas.2313332121).
Variants at the background level are over-represented here.

B1: TPR 5TU (parent)
chain: GGAUCUUCUCGAUCUAACAAAAAAGACAAAUCUGCCACAAAGCUUGAGAGCAUCUUCGGAUGCAGAGGCGGCAGCCUUCGGUGGCGCGAUAGCGCCAACGUUCUCAACUAUGACACGCAAAACGCGUGCUCCGUUGAAUGGAGUUUAUCAUG

Variants of: B1
Assay: polymerase ribozyme fitness, log enrichment relative to wild type (log ratio); higher = more active; in vitro selection for triplet polymerase activity
Procedure, shortened: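 Mutant libraries of each subunit of a heterodimeric triplet polymerase ribozyme were built by PCR and transcribed. Each library went through one round of in vitro selection in triplicate: annealing with biotinylated primer, partner subunit and triplets, frozen incubation at −7 °C, gel excision of extended constructs, streptavidin-bead capture and RT-PCR. Input and output libraries were Illumina-sequenced; only genotypes with ≥10 input reads and ≥1 read per output were kept. Fitness is log2(genotype enrichment/wild-type enrichment), using inverse-variance-weighted replicate averages.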

Row | Variant | polymerase ribozyme fitness (log ratio)
1 | GGAUCUUCUCGAUCUAACAAAAAAGACAAAUCUGCCACAAAGCUUGAGAGCAUCUUCGGAUGCAGAGGCGGCAGCUUUCGGUGGCGUGAUAGCGCCAACGUUCUCAACUAUGACACGGAAAACGCGUGGUCCGUUGAAUGGAGUUUAUCAUG [C76U C87U C118G C129G] | ≤ -4.2
2 | GGAUCUUCUCGAUCUAACAAAAAAGACAAAUCUGCCACAAAGCUUGAGAGCAUCUUCGGAUGCAGAGGCGGCAGCUUUCGGUGGCGGGAUAGCGCCAACGUUCUCAACUAUGACACGCAAAACGCGUGCUCCGUUGAAUGGAGUUUAUCAUG [C76U C87G] | -3.96
3 | GGAUCUUCUCGAUCUAACAAAAAAGACAAAUCUGCCACAAAGCUUGAGAGCAUCUUCGGAUGCAGAGGCGGCAGCGUUCGGUGGCGCGAAAGCGCCAACGUUCUCAAGUAUGACACGCAAAACGAGUGCUCCGUUGAAUUGCGUUUAUCAUG [C76G U90A C108G C125A G140U A142C] | ≤ -4.2
4 | GGAUCUUCUCGAUCUAACAAAAAAGACAAAUCUGCCACAAAGCUUGAGAGCAUCUUCGGAUGCAGAGGCGGCAGCGUUCGGUGUCGCGAUAGCGCCAACGUUCUCAACUAUGACACGCAAAACGCGUGCUCCGUUGAAUGGAGUUUAUCAUG [C76G G84U] | ≤ -4.2
5 | GGAUCUUCUCGAUCUAACAAAAAAGACAAAUCUGCCACAAAGCUUGAGAGCAUCUUCGGAUGCAGAGGCGGCAGCGUUCGGUGGCACGAUAGCGCCAACGUUCUCAACUAUGACACGCAAAACGCGUGCUCCGUUGAAUGGAGUUUAUCAUG [C76G G86A] | ≤ -4.2
6 | GGAUCUUCUCGAUCUAACAAAAAAGACAAAUCUGCCACAAAGCUUGAGAGCAUCUUCGGAUGCAGAGGCGGCAGCGUUCGGUGGCGCGAUAGCGCCAACGUUCUCAACUAUGACACGCAUAACGCGUGCUCCGUUGAAUGGAGGUUAUCAUG [C76G A120U U144G] | ≤ -4.2
7 | GGAUCUUCUCGAUCUAACAAAAAAGACAAAUCUGCCACAAAGCUUGAGAGCAUCUUCGGAUGCAGAGGCGGCAGCUUUCGGUAGCGCGAUAGCGCCAACGUUCUGAACUAUGACACGCAAAACGCGUGCUCCGUUGAAUGGAGUUUAUCAUG [C76U G83A C105G] | ≤ -4.2
8 | GGAUCUUCUCGAUCUAACAAAAAAGACAAAUCUGCCACAAAGCUUGAGAGCAUCUUCGGAUGCAGAGGCGGCAGCUUUCGGUGGCGCGAUAGCGCCAACGUUCUCAACUAUGACACGCAAAGCGCGUGCUCCGUUGAAUGGAGUUUAUCAUG [C76U A122G] | -0.0921
9 | GGAUCUUCUCGAUCUAACAAAAAAGACAAAUCUGCCACAAAGCUUGAGAGCAUCUUCGGAUGCAGAGGCGGCAGCUUUCGGCGGCGCGGUAGCGCCAACGUUCUCAACUAUGACACGCAAAACGCGUGCUCCGUUGAAUGGAGUUUAUCAUG [C76U U82C A89G] | -1.3
10 | GGAUCUUCUCGAUCUAACAAAAAAGACAAAUCUGCCACAAAGCUUGAGAGCAUCUUCGGAUGCAGAGGCGGCAGCUUUCGGUGGCGCGAUAGCGCCAACGUUCUCAAGUAUGACACGCAAAACGCGUGCUCCGUUGAAUGUAGGUUAUCAUG [C76U C108G G141U U144G] | ≤ -4.2
11 | GGAUCUUCUCGAUCUAACAAAAAAGACAAAUCUGCCACAAAGCUUGAGAGCAUCUUCGGAUGCAGAGGCGGCAGCUUUCGGUGACGCGAUAGCGCCAACGUUCUCAACUAUGACACGUAAAACGCGUGCUCCGAUGAAUCGAGUUUAUCAAG [C76U G84A C118U U134A G140C U151A] | ≤ -4.2
12 | GGAUCUUCUCGAUCUAACAAAAAAGACAAAUCUGCCACAAAGCUUGAGAGCAUCUUCGGAUGCAGAGGCGGCAGCCAUCGGUGGCGUGAUAGCGCCACCGUUAUCAACUAUGACACGCAAAACGUGUGCUCCGUGGAAUGGAGUUUAUCAUG [U77A C87U A98C C103A C125U U135G] | ≤ -4.2
13 | GGAUCUUCUCGAUCUAACAAAAAAGACAAAUCUGCCACAAAGCUUGAGAGCAUCUUCGGAUGCAGAGGCGGCAGCGUUCGGUGGCGCGAUAUCGCCAACGUUCUCAACUAUGACACGCAAGACGCGUGCUCCGUUGAAUGGAUUUUAUCAUG [C76G G92U A121G G143U] | ≤ -4.2
14 | GGAUCUUCUCGAUCUAACAAAAAAGACAAAUCUGCCACAAAGCUUGAGAGCAUCUUCGGAUGCAGAGGCGGCAGCCAUCGGUGGCGCGAUUGCGCCAACGUUCUCAACUAUGACACGCAAAACGCGUGCUCCGUUGAAUGAAGUUUAUCAGG [U77A A91U G141A U151G] | ≤ -4.2
15 | GGAUCUUCUCGAUCUAACAAAAAAGACAAAUCUGCCACAAAGCUUGAGAGCAUCUUCGGAUGCAGAGGCGGCAGCUUUCGGUGACGCGAUAGCGCCAACGUUCUCAACUAUGACACGCUAAACGCGUGCUCCGUUGAAUGGAGUGUAUCAUG [C76U G84A A119U U145G] | -2.68
16 | GGAUCUUCUCGAUCUAACAAAAAAGACAAAUCUGCCACAAAGCUUGAGAGCAUCUUCGGAUGCAGAGGCGGCAGCGUUCGGUGGCGUGAUAGCGCCAACGUUCUCAACUAUGACACGUAAAACGCGUGCUCCGUUGAAUGGAGUUUAUCAUG [C76G C87U C118U] | ≤ -4.2
17 | GGAUCUUCUCGAUCUAACAAAAAAGACAAAUCUGCCACAAAGCUUGAGAGCAUCUUCGGAUGCAGAGGCGGCAGCUUUCGGUGUCGCGAUAGCGCCAUCGUUCUCAACUAUGACACGCAAAACGCGUGCUCCGUUGAAUGGAGUUUAUCAUG [C76U G84U A98U] | -1.66
18 | GGAUCUUCUCGAUCUAACAAAAAAGACAAAUCUGCCACAAAGCUUGAGAGCAUCUUCGGAUGCAGAGGCGGCAGCUUUCGGUGGCGCGAUAGCGCCAACGUUCUCAACUAUGACACGCGAAACGCUUGCUCCGUUGAAGGGAGUUUAUCAUG [C76U A119G G126U U139G] | -0.649
19 | GGAUCUUCUCGAUCUAACAAAAAAGACAAAUCUGCCACAAAGCUUGAGAGCAUCUUCGGAUGCAGAGGCGGCAGCUUUCGGUGUCGCGAUAGCGCCAACGUUCUCAACUAUGACACGCAAAACGCGUGCUCCGUUGAAUGGAGUUUAUCAUG [C76U G84U] | -0.883
